Results published in PubChem BioAssay (NCI).
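How tested: cells in 96-well plates exposed to compound for 48 hours at five concentrations. The concentration for 50% growth inhibition is given as GI50. TGI: concentration producing complete growth inhibition.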

Tested on: NCI-H322M lung
Assay: NCI tumour cell line growth inhibition, 48 h

Row | SMILES | GI50 | TGI
1 | CCOC(=O)Nc1cccc(-n2cnc3cc(-c4ccc(O)cc4)ccc32)c1 | 1280 nM | > 64200 nM
2 | COc1cc2c3c(n(CCCN4CCCC4)c(=O)c2cc1OC)-c1cc2c(cc1C3=O)OCO2 | 1650 nM | 3620 nM
